Structures are written as SMILES. Where “and” joins values, the source holds several entries; their conditions need not be identical. Equal entries are not always repeated. Structures can show the parent of a compound that is named as a salt. ± gives the standard deviation of the averaged measurements. Whole data set: some 2,600 compounds, median “total cell number (DAPI+ nuclei) relative to DMSO vehicle control” near -1.4, cut for the lowest 2% near -23. Some of the results follow.

The assay deals with jimpy (Plp1 jimpy) mouse iPSC-derived oligodendrocyte progenitor cells. Description: total cell number (DAPI+ nuclei) relative to DMSO vehicle control (SDs above negative control mean); higher = more surviving cells. The following applies: 10 µM; 3 days.
`C[C@@H]1O[C@@H](O[C@H]2[C@H](Oc3cc(O)c4c(c3)O[C@H](c3ccc(O)cc3)CC4=O)O[C@H](CO)[C@@H](O)[C@@H]2O)[C@H](O)[C@H](O)[C@H]1O` [Naringin] gave a total cell number of -1.39.
Next, `Cc1ccc(C(=O)C(C)CN2CCCCC2)cc1` (stereo unspecified) [Tolperisone HCl]: 0.936; `CSc1nc(N)c2ncn([C@@H]3O[C@H](COP(=O)(O)OP(=O)(O)O)[C@H](O)C3O)c2n1` (stereo partly specified): -2.77; `c1ccc(CN2CCC3(CCCc4ccccc43)CC2)cc1` [L-687,384 hydrochloride]: -2.42.
The same measure for `CNCC[C@@H](Oc1ccccc1C)c1ccccc1` [Tomoxetine]: -0.828.
Next, `CNCC[C@@H](Oc1ccccc1C)c1ccccc1` [Atomoxetine HCl]: -0.827.
With `NS(=O)(=O)C#Cc1ccccc1` [Pifithrin-mu], the total cell number is -3.18.
The same measure for `Nc1c(S(=O)(=O)O)cc(Nc2ccc(Nc3nc(Cl)nc(Nc4cccc(S(=O)(=O)O)c4)n3)c(S(=O)(=O)O)c2)c2c1C(=O)c1ccccc1C2=O` [Reactive Blue 2]: -0.98; for `C[C@@H](Oc1cc(-c2cnn(C3CCNCC3)c2)cnc1N)c1c(Cl)ccc(F)c1Cl`: -27.1.
The same measure for `COCCCOc1ccnc(C[S+]([O-])c2nc3ccccc3[nH]2)c1C` (stereo unspecified) [Rabeprazole sodium]: -0.289; for `O=C(O)Cc1cc(I)c(Oc2ccc(O)c(I)c2)c(I)c1` [Tiratricol]: -0.51; for `Cc1cc(Nc2ncc(Cl)c(Nc3ccccc3S(=O)(=O)C(C)C)n2)c(OC(C)C)cc1C1CCNCC1`: -16.3.
Next, `CCC(CC)(NC(=O)C(C)C)C(=O)N[C@@H](CCCN=C(N)N)C(=O)NC1(C(=O)NC(c2ccc(F)cc2)c2ccc(F)cc2)CCCC1`: -3.11.
As for `CCN(CC)CCCN(c1ccccc1)C1Cc2ccccc2C1` [Aprindine hydrochloride], the total cell number was -1.55.
Compound `COCCCOc1cc(C[C@@H](C[C@H](N)[C@@H](O)C[C@H](C(=O)NCC(C)(C)C(N)=O)C(C)C)C(C)C)ccc1OC` [Aliskiren Hemifumarate] returned a total cell number of -0.28.
Next, `O=C(O)Cc1ccc(O)c(O)c1` [3,4-Dihydroxyphenylacetic acid]: -1.97.
The same measure for `CCCc1nc2c(C)cc(-c3nc4ccccc4n3C)cc2n1Cc1ccc(-c2ccccc2C(=O)O)cc1` [Telmisartan]: 1.56; for `N=C(N)N1CCc2ccccc2C1` [Debrisoquin sulfate]: 1.95.
The same measure for `Cc1ccc(C(=O)N(CCCN)[C@@H](c2nc3cc(Cl)ccc3c(=O)n2Cc2ccccc2)C(C)C)cc1`: -27.5; for `CC(=O)/N=c1/sc(S(N)(=O)=O)nn1C` [Methazolamide]: 0.269 ± 2; for `CC1=CC(=O)c2ccccc2C1=O` [Menadione]: -11.4.
Turning to `COc1cc2ncnc(Nc3ccc(F)c(Cl)c3)c2cc1NC(=O)/C=C/CN1CCCCC1`, the total cell number is -11.6.
Next, `N=C(N)SCCN` [2-(2-Aminoethyl)isothiourea dihydrobromide]: -2.29.
Next, `CCCCC1C(=O)N(c2ccccc2)N(c2ccccc2)C1=O` [Phenylbutazone]: -0.179 ± 1; `Clc1ccccc1C(c1ccccc1)(c1ccccc1)n1ccnc1` [Clotrimazole]: 5.25 ± 1; `NC(=O)NO` [Hydroxyurea]: -2.26 ± 0.26.
The same measure for `Clc1ccc(COC(Cn2ccnc2)c2ccc(Cl)cc2Cl)cc1` (stereo unspecified) [Econazole nitrate]: -0.691; for `CC(C)=CCC/C(C)=C/COc1ccc2ccc(=O)oc2c1` [Auraptene]: -2.06.
In the case of `COc1cc(CC(=O)O)ccc1O` [4-Hydroxy-3-methoxyphenylacetic acid], the total cell number is -1.87.
Next, `CCOc1ncc(S(=O)(=O)N2CCN(CC)CC2)cc1-c1nc(=O)c2nn(CCOC)c(CC)c2[nH]1` [Gisadenafil besylate salt]: -0.843; `CCCC(C(=O)OCCN(CC)CC)(c1ccccc1)c1ccccc1` [SKF-525A hydrochloride]: -5.13; `CO[C@H]1C(=O)[C@]2(C)[C@@H](OC)C[C@H]3OC[C@@]3(OC(C)=O)[C@H]2[C@H](OC(=O)c2ccccc2)[C@]2(O)C[C@H](OC(=O)[C@H](O)[C@@H](NC(=O)OC(C)(C)C)c3ccccc3)C(C)=C1C2(C)C` [Cabazitaxel]: -3.98.
Next, `O=S(=O)(O)CCSSCCS(=O)(=O)O` [Dimesna]: 1.49; `N[C@@H](Cc1ccc(F)cc1)C(=O)O` [p-Fluoro-L-phenylalanine]: -1.39.
The same measure for `Nc1nccc2c1ncn2[C@@H]1O[C@H](CO)[C@@H](O)[C@H]1O` [3-deazaadenosine]: -1.25; for `O=C(Nc1ccc2[nH]ncc2c1)C1CCC1` [Rhodblock 6]: -2.58; for `CCCCC#Cc1nc(NC)c2ncn([C@@H]3O[C@H](CO)[C@@H](O)[C@H]3O)c2n1`: -1.81.
On to `Cn1cnc(N)c2ncnc1-2` [3-Methyladenine], for which the total cell number came out at 0.347.
Compound `CC[C@]1(O)C[C@@H]2CN(CCc3c([nH]c4ccccc34)[C@@](C(=O)OC)(c3cc4c(cc3OC)N(C)[C@H]3[C@@](O)(C(=O)OC)[C@H](OC(C)=O)[C@]5(CC)C=CCN6CC[C@]43[C@@H]65)C2)C1` [Vinblastine] gave a total cell number of -3.74.
The same measure for `CC[C@]1(O)C[C@@H]2CN(CCc3c([nH]c4ccccc34)[C@@](C(=O)OC)(c3cc4c(cc3OC)N(C)[C@H]3[C@@](O)(C(=O)OC)[C@H](OC(C)=O)[C@]5(CC)C=CCN6CC[C@]43[C@@H]65)C2)C1` [Vinblastine sulfate salt]: -3.37.
The same measure for `CCN(CCCc1ccccc1)CCCc1ccccc1` [Alverine Citrate]: 1.03; for `CN(C)CCN1C(=O)c2cccc3cc(N)cc(c23)C1=O` [Amonafide]: -24; for `CCOc1ccc(Cc2cc([C@@H]3O[C@H](CO)[C@@H](O)[C@H](O)[C@H]3O)ccc2Cl)cc1` [Dapagliflozin]: 0.277.
Next, `O[C@@H]1CO[C@H]2[C@@H]1OC[C@@H]2O` [Isosorbide]: -0.864.
In the case of `COC1=C(OC)C(=O)c2ccccc2C1=O` [2,3-Dimethoxy-1,4-naphthoquinone], the total cell number is -9.97.
Consider `COc1ccc(/C=C2\COc3ccc(C)cc3C2=O)cc1O`, for which the total cell number was -7.57.
Take `Cc1c(O)cccc1C(=O)N[C@@H](CSc1ccccc1)[C@H](O)CN1C[C@H]2CCCC[C@H]2C[C@H]1C(=O)NC(C)(C)C` [Nelfinavir mesylate hydrate]: the total cell number is -4.31.
Next, `Cc1cccc(Nc2nc(-c3ccncc3)cs2)c1`: -7.35; `CN(C)CCC(c1ccccc1)c1ccccn1` (stereo unspecified) [Pheniramine Maleate]: 1.68.
The same measure for `CN(C)CCC(c1ccccc1)c1ccccn1` (stereo unspecified) [Pheniramine maleate]: -0.942; for `Nc1ccn([C@@H]2O[C@H](CO)[C@@H](O)[C@H]2O)c(=O)n1` [Cytidine]: -1.69.
Next, `CCCCC[C@H](CC(=O)NO)C(=O)N[C@H](C(=O)N1CCC[C@H]1CO)C(C)C` [Actinonin]: -1.52; `Cc1cc(C)cc(NC(=O)Cc2ccc(OC(C)(C)C(=O)O)cc2)c1` [Efaproxiral Sodium]: 1.06.
In turn, `Cc1nc(N=Nc2ccc(S(=O)(=O)O)cc2S(=O)(=O)O)c(COP(=O)(O)O)c(C=O)c1O` displayed a total cell number of -1.17.
The same measure for `Cc1ccc(O)c([C@H](CCN(C(C)C)C(C)C)c2ccccc2)c1` [Tolterodine tartrate]: -3.77; for `C=CCc1ccccc1OCC(O)CNC(C)C` (stereo unspecified) [Alprenolol hydrochloride]: -7.1; for `NC[C@H]1CC[C@H](C(=O)O)CC1` [Tranexamic Acid]: 2.46.
Next, `CCCCOc1ccc(CC(=O)NO)cc1` [Bufexamac]: -0.0933; `CC(=O)OC(C)C[N+](C)(C)C` (stereo not drawn) [Acetyl-beta-methylcholine chloride]: -0.0482.
Next, `CCCCCCCCCCCCCCCCO` [1-Hexadecanol]: -0.446; `CCN1/C(=C/C(C)=O)Sc2ccc(OC)cc21`: -4.99 ± 1.3; `CN(C)C(=O)N=NC(=O)N(C)C` [N,N,N',N'-Tetramethylazodicarboxamide]: -1.91.
`CCN1CCCC1CNC(=O)c1cc(S(N)(=O)=O)ccc1OC` (racemic) [(±)-Sulpiride]: the total cell number was 0.388.
The same measure for `CCOC(=O)c1ccc(C#Cc2ccc3c(c2)C(C)(C)CCS3)nc1` [Tazarotene]: -3.46 ± 0.47.
The same measure for `CC(C)N(CCC(=O)c1ccc2ccccc2c1)Cc1ccccc1`: -3.25 and -5.72; for `CC(C)(C)C#Cc1cc(N(C(=O)[C@H]2CC[C@H](C)CC2)[C@H]2CC[C@H](O)CC2)c(C(=O)O)s1` [VX-222 (VCH-222, Lomibuvir)]: -0.556; for `CCC(C)(C)c1ccc(CC(C)CN2C[C@@H](C)O[C@@H](C)C2)cc1` (stereo partly specified) [Amorolfine HCl]: 5.81.
Next, `COc1ccc(CCN(C)CCCC(C#N)(c2ccc(OC)c(OC)c2)C(C)C)cc1OC` (racemic) [(±)-Verapamil hydrochloride]: -3.87.
Consider `COc1ccc(CCN(C)CCCC(C#N)(c2ccc(OC)c(OC)c2)C(C)C)cc1OC` (racemic) [Verapamil HCl], for which the total cell number was -5.69.
Next, `Cn1c(=O)c(F)c(Nc2ccc(I)cc2F)c2c(=O)n(C[C@@H](O)CO)cnc21`: -10.4.
Consider `COc1ccc(-c2cc3c(C)nc(N)nc3n([C@H]3CC[C@H](OCCO)CC3)c2=O)cn1`, for which the total cell number was -11.2.
The same measure for `CCOc1nc2cccc(C(=O)OC(C)OC(=O)OC3CCCCC3)c2n1Cc1ccc(-c2ccccc2-c2nn[nH]n2)cc1` (stereo unspecified) [Candesartan cilexetil]: -1.21; for `CCOc1nc2cccc(C(=O)OC(C)OC(=O)OC3CCCCC3)c2n1Cc1ccc(-c2ccccc2-c2nn[nH]n2)cc1` (stereo unspecified) [Candesartan Cilexetil]: -0.473.
The same measure for `CCCCNc1ncc(-c2ccc(CN3CCOCC3)cn2)c(NC2CCC(O)CC2)n1` (stereo unspecified): -8.26; for `COc1ccc(-c2oc3c(CC=C(C)C)c(O)cc(O)c3c(=O)c2O)cc1` [Icaritin]: -7.97; for `CCN1CCC[C@H]1CNC(=O)c1cc(S(N)(=O)=O)ccc1OC` [Levosulpiride]: 1.95.
